Experimental findings from the antibiotic and cytotoxicity screens of Wong et al. (2023) are described below.

One experiment concerns HSkMC. Put plainly: cytotoxicity call (relative viability < 0.9). The note with it: 10 µM.
Another experiment deals with HepG2. Put plainly: cytotoxicity call (relative viability < 0.9). The settings on record: 10 µM.
Another experiment deals with S. aureus RN4220. Description: growth inhibition call (relative growth <= 0.2). The settings on record: 50 µM.

The structures appear in SMILES notation. The list shows a part of the results.

With `CCC(C)C1OC2(C=CC1C)CC1CC(CC=C(C)C(OC3CC(OC)C(OC4CC(OC)C(O)C(C)O4)C(C)O3)C(C)C=CC=C3COC4C(OC)C(C)=CC(C(=O)O1)C34O)O2` (stereo unspecified), the cytotoxicity call in the experiment on HSkMC and in the experiment on HepG2 was “active” in each case. In addition, in the experiment with S. aureus RN4220, the growth inhibition call was “inactive”.
As to `C[C@@H]1CN([C@@H](C)CO)C(=O)c2cc(C#CCN(C)C)cnc2O[C@@H]1CN(C)C(=O)CCN1CCCCC1`, the cytotoxicity call in the experiment with HSkMC and in the experiment on HepG2 was “inactive” in each case. The growth inhibition call with S. aureus RN4220 was “inactive”.
Turning to `C[C@@H]1CN([C@@H](C)CO)C(=O)c2cc(NS(=O)(=O)c3ccc(Cl)cc3)ccc2O[C@@H]1CN(C)Cc1ccc(Cl)c(Cl)c1`, the cytotoxicity call in the experiment with HSkMC and with HepG2 was “active” each time. In the experiment with S. aureus RN4220, the growth inhibition call was “inactive”.
For `C[C@H](CO)N1C[C@H](C)[C@H](CN(C)C(=O)NC2CCCCC2)Oc2c(NS(=O)(=O)c3cn(C)cn3)cccc2C1=O`, the cytotoxicity call in the experiment with HSkMC and in the experiment on HepG2 was “inactive” in each case. The growth inhibition call in the experiment with S. aureus RN4220 was “inactive”.
On to `C[C@@H]1CCCCO[C@@H](CN(C)C(=O)C2CCCCC2)[C@H](C)CN([C@@H](C)CO)C(=O)c2cc(NS(=O)(=O)c3ccc(Cl)cc3)ccc2O1`, for which the cytotoxicity call in the experiment on HSkMC and in the experiment with HepG2 was “inactive” in each case. Further, the growth inhibition call in the experiment with S. aureus RN4220 was “inactive”.
In the case of `COC(=O)Cc1cccn1C`, the cytotoxicity call in the experiment on HSkMC and in the experiment with HepG2 was “inactive” in each case. Further, the growth inhibition call with S. aureus RN4220 was “inactive”.
Regarding `CC(C)c1ccc2oc3nc(N)c(C(=O)O)cc3c(=O)c2c1`, the cytotoxicity call in the experiment on HSkMC and with HepG2 was “inactive” throughout. For the same compound, the growth inhibition call in the experiment with S. aureus RN4220 was “inactive”.
On to `C[C@H]1CN([C@@H](C)CO)C(=O)c2ccccc2-c2ccccc2CO[C@H]1CN(C)C(=O)Nc1cccc(Cl)c1Cl`, for which the cytotoxicity call with HSkMC and in the experiment on HepG2 was “inactive” each time. Besides, in the experiment with S. aureus RN4220, the growth inhibition call is “inactive”.
Turning to `C[C@@H]1CN([C@H](C)CO)C(=O)c2cc(NS(=O)(=O)c3ccc(Cl)cc3)ccc2O[C@H]1CN(C)S(C)(=O)=O`, the cytotoxicity call in the experiment on HSkMC and in the experiment with HepG2 was “inactive” throughout. For the same compound, the growth inhibition call in the experiment on S. aureus RN4220 is “inactive”.
With `C[C@@H]1CN([C@H](C)CO)C(=O)Cc2cc(NC(=O)Nc3cccc4ccccc34)ccc2O[C@H]1CN(C)Cc1ccc(C(=O)O)cc1`, the cytotoxicity call in the experiment with HSkMC and in the experiment on HepG2 was “inactive” throughout. For the same compound, the growth inhibition call with S. aureus RN4220 was “inactive”.
Turning to `COc1ccc(NC(=O)Nc2ccc3c(c2)C(=O)N([C@H](C)CO)C[C@H](C)[C@H](CN(C)Cc2ccc(C(F)(F)F)cc2)O3)cc1`, the cytotoxicity call in the experiment on HSkMC and in the experiment on HepG2 was “inactive” throughout. Moreover, the growth inhibition call in the experiment with S. aureus RN4220 is “inactive”.
With `C[C@H](CO)N1C[C@H](C)[C@H](CN(C)CC2CC2)Oc2ccc(NS(=O)(=O)c3ccc(F)cc3)cc2CC1=O`, the cytotoxicity call with HSkMC and with HepG2 was “inactive” in each case. Moreover, in the experiment on S. aureus RN4220, the growth inhibition call is “inactive”.
With `C[C@H]1CN([C@@H](C)CO)C(=O)Cc2cc(NC(=O)NC3CCCCC3)ccc2O[C@@H]1CN(C)Cc1ccc(-c2ccccc2)cc1`, the cytotoxicity call in the experiment with HSkMC and with HepG2 was “inactive” throughout. Further, in the experiment on S. aureus RN4220, the growth inhibition call was “inactive”.
With `Nc1ccccc1CO`, the cytotoxicity call with HSkMC was “inactive”. Moreover, the cytotoxicity call in the experiment with HepG2 is “active”. In the experiment on S. aureus RN4220, the growth inhibition call was “inactive”.
For the compound `CC(C)NC(=O)N(C)C[C@@H]1OCCCC[C@@H](C)Oc2ccc(NC(=O)C3CCCCC3)cc2C(=O)N([C@@H](C)CO)C[C@@H]1C`, the cytotoxicity call with HSkMC and in the experiment on HepG2 was “inactive” each time. In addition, the growth inhibition call in the experiment on S. aureus RN4220 was “inactive”.
`C[C@@H]1CN([C@H](C)CO)S(=O)(=O)c2ccc(C#CCN(C)C)cc2O[C@@H]1CN(C)Cc1ccccc1F`: the cytotoxicity call in the experiment with HSkMC and with HepG2 was “inactive” in each case. In the experiment with S. aureus RN4220, the growth inhibition call was “inactive”.
For `C[C@@H]1CN([C@@H](C)CO)C(=O)c2cc(NC(=O)Nc3ccc4c(c3)OCO4)ccc2O[C@@H]1CN(C)C(=O)Nc1cccc2ccccc12`, the cytotoxicity call with HSkMC is “active”. The cytotoxicity call in the experiment with HepG2 is “inactive”. In addition, the growth inhibition call in the experiment with S. aureus RN4220 is “inactive”.
With `CO[C@H](CN(C)S(=O)(=O)c1ccc(Cl)cc1)[C@H](C)CN([C@@H](C)CO)S(=O)(=O)c1cccc(Cl)c1`, the cytotoxicity call in the experiment with HSkMC and in the experiment with HepG2 was “inactive” in each case. The growth inhibition call in the experiment on S. aureus RN4220 was “inactive”.
On to `C[C@H](CO)N1C[C@H](C)[C@H](CN(C)Cc2ccc(C(=O)Nc3ccccc3N)cc2)Oc2ccc(NC(=O)CCC(F)(F)F)cc2C1=O`, for which the cytotoxicity call in the experiment on HSkMC and in the experiment on HepG2 was “inactive” each time. In the experiment with S. aureus RN4220, the growth inhibition call is “inactive”.
As for `O=C(NCC1CC1)[C@H]1[C@H](CO)[C@H]2Cn3c(cccc3=O)[C@@H]1N2C(=O)c1cccnc1`, the cytotoxicity call in the experiment on HSkMC and in the experiment with HepG2 was “inactive” in each case. For the same compound, in the experiment with S. aureus RN4220, the growth inhibition call is “inactive”.
Take `C[C@H]1CN([C@@H](C)CO)C(=O)c2cccc(NC(=O)Nc3ccc(F)cc3)c2O[C@H]1CN(C)Cc1ccc(C(F)(F)F)cc1`: the cytotoxicity call in the experiment on HSkMC (human skeletal muscle cells) and in the experiment on HepG2 was “inactive” in each case. In addition, the growth inhibition call with S. aureus RN4220 is “inactive”.
Consider `Cc1onc(-c2c(Cl)cccc2Cl)c1C(=O)NC1C(=O)N2C1SC(C)(C)C2C(=O)[O-].[Na+]` (stereo unspecified), for which the cytotoxicity call with HSkMC and with HepG2 was “inactive” each time. Besides, in the experiment on S. aureus RN4220, the growth inhibition call is “active”.
For `C=CCCC(=O)N(C)[C@H](C)[C@H](OC(=O)[C@@H]1[C@@H]2C=C[C@]3(O2)[C@H](C(=O)N(CC=C)Cc2ccccc2)N(C(C)(C)C)C(=O)[C@@H]13)c1ccccc1`, the cytotoxicity call in the experiment with HSkMC and with HepG2 was “inactive” throughout. Also, in the experiment on S. aureus RN4220, the growth inhibition call was “inactive”.
For the compound `COC(=O)C[C@@H]1CC[C@H]2[C@@H](COc3ccc(NS(=O)(=O)c4ccccc4Cl)cc3C(=O)N2C)O1`, the cytotoxicity call in the experiment with HSkMC and in the experiment with HepG2 was “inactive” in each case. Also, the growth inhibition call in the experiment with S. aureus RN4220 was “inactive”.
For the compound `O=C(C[C@@H]1C[C@H]2c3cc(NC(=O)c4ccc5c(c4)OCO5)ccc3O[C@H]2[C@H](CO)O1)NCc1cccnc1`, the cytotoxicity call in the experiment with HSkMC and with HepG2 was “inactive” throughout. In the experiment with S. aureus RN4220, the growth inhibition call was “inactive”.
Turning to `C[C@@H]1CN([C@H](C)CO)C(=O)Cc2cc(NC(=O)Nc3ccc4c(c3)OCO4)ccc2O[C@H]1CN(C)Cc1ccc(C(=O)Nc2ccccc2N)cc1`, the cytotoxicity call with HSkMC and with HepG2 was “inactive” each time. In the experiment on S. aureus RN4220, the growth inhibition call was “inactive”.
Consider `C[C@@H]1CN([C@@H](C)CO)C(=O)c2cc(NC(=O)CCCCCC(=O)Nc3ccccc3N)ccc2O[C@@H]1CN(C)Cc1ccc(-c2ccccc2)cc1`, for which the cytotoxicity call with HSkMC is “inactive”. Also, in the experiment with HepG2, the cytotoxicity call is “active”. For the same compound, the growth inhibition call in the experiment with S. aureus RN4220 is “inactive”.
